The source of these data is article PMC6919601, “Identification of Plasmodium dipeptidyl aminopeptidase allosteric inhibitors by high throughput screening” (PLoS ONE, 2019).

Among all 110,000 compounds or so, about 230 (0.21%) showed an effect of 50% or more. Some of the results follow.
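Note: 30 min substrate incubation versus DMSO and 10 µM JCP410 controls.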

This assay deals with DPAP1 (Plasmodium falciparum, UniProt Q8IIJ9). Kind of assay: primary screen, percent inhibition; read by cleavage of a fluorogenic dipeptide substrate; higher = more effect of the substance. On the set-up: species or system P. falciparum D10 trophozoite lysates; single well.
Chain of DPAP1 (Q8IIJ9 whole entry, looked up): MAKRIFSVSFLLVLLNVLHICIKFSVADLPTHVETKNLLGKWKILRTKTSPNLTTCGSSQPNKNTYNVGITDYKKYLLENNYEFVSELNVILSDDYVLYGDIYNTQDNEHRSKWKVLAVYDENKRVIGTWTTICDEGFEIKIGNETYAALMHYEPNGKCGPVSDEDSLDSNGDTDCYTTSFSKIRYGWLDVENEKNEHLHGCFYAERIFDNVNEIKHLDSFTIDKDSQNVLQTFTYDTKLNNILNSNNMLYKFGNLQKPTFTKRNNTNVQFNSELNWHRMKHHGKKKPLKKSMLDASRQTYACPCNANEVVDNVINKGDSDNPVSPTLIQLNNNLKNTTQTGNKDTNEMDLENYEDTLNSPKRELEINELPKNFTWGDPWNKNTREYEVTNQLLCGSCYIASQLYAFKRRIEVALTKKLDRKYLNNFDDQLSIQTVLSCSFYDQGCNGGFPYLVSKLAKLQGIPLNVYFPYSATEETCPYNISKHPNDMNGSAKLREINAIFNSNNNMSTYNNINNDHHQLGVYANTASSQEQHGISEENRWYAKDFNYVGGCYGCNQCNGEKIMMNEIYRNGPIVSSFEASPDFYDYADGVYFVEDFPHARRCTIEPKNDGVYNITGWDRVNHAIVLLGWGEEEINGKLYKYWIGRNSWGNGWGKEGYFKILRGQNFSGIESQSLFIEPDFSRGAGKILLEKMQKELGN
For `CCOc1ccccc1CN1C(=O)c2ccccc2C1C(=O)NC(C)CC` (stereo not drawn), the “% Inhibition @ 10 uM” value is -0.668%.

Regarding `CCCc1cc(-c2[nH]nc(C)c2-c2ccc3c(c2)OCCO3)c(O)cc1O`, the “% Inhibition @ 10 uM” value worked out at 0.628%.

On to `O=C(CN1C(=O)c2ccc(Br)cc2C1=O)Nc1ccc(C(=O)O)cc1`, for which the “% Inhibition @ 10 uM” value worked out at 17.8%.

In the case of `CCCc1c(C)nc2nc3ccccc3n2c1O`, the “% Inhibition @ 10 uM” value is listed as -0.85%.

Take `Cc1ccc(Cl)cc1N(CC(=O)Nc1ccccc1C(=O)O)S(C)(=O)=O`: the “% Inhibition @ 10 uM” value was -1.98%.

As to `COc1ccc(Cn2c(SCc3ccc(C(=O)NC(C)C)cc3)nc3ccncc32)cc1`, the “% Inhibition @ 10 uM” value was -2.14%.

On to `Cc1ccccc1/C=C/c1nn2c(-c3ccoc3C)nnc2s1`, for which the “% Inhibition @ 10 uM” value is listed as -3.31%.

Turning to `Oc1ccc(NCc2ccc(OCc3cccs3)cc2)cc1`, the “% Inhibition @ 10 uM” value is recorded as -2.8%.

On to `COc1cc(OC)cc(C(=O)O/N=C(\N)c2ccccn2)c1`, for which the “% Inhibition @ 10 uM” value came to 3.8%.

`CC1CCCc2c1nc(N)c(C#N)c2-c1ccc2c(c1)OCO2` (stereo not drawn): the “% Inhibition @ 10 uM” value is on record as -6.74%.

Regarding `c1cncc(-c2nc3c4ccccc4nc(NCCCN4CCOCC4)n3n2)c1`, the “% Inhibition @ 10 uM” value stood at 7.15%.

For `CN(C)CCC1(c2ccc(O)c(O)c2)CCCCC1`, the “% Inhibition @ 10 uM” value is recorded as -4.23%.

For the compound `COc1ccccc1C1C2=C(CCCC2=O)OC2=C1C(=O)CCC2`, the “% Inhibition @ 10 uM” value is -6.75%.

As for `c1ccc(CN2CCN(Cc3cccs3)CC2)cc1`, the “% Inhibition @ 10 uM” value was 3.16%.

For `CC(C)Cn1c(CN2CCN(Cc3ccccc3)CC2)nc2c1c(=O)n(C)c(=O)n2C`, the “% Inhibition @ 10 uM” value was -1.65%.

With `Cc1nc2c(-c3ccc(Cl)cc3)c(Cc3ccccc3)nn2c(O)c1Cl`, the “% Inhibition @ 10 uM” value came out at 2.92%.

Take `CC(CN1CCCCC1CO)c1ccccc1` (stereo not drawn): the “% Inhibition @ 10 uM” value turned out to be 0.217%.

`COc1ccccc1CNCc1ccccn1`: the “% Inhibition @ 10 uM” value stood at 10.5%.

Regarding `N#CC1=C(N)OC2=C(C(=O)CC(c3ccccc3)C2)C12C(=O)Nc1ccccc12` (stereo not drawn), the “% Inhibition @ 10 uM” value is 4.12%.

In the case of `CC1(C)CC(NC(=O)c2cncc(Br)c2)CC(C)(C)N1`, the “% Inhibition @ 10 uM” value is given as -1.52%.

With `COc1ccc(Cn2c(C(=O)O)c(CNCCCc3ccccc3)c3ccccc32)cc1`, the “% Inhibition @ 10 uM” value came out at 0.616%.

As to `Cc1ccc(NC(=O)CCN2C(=O)c3ccccc3C2=O)cc1[N+](=O)[O-]`, the “% Inhibition @ 10 uM” value was -14.3%.

Consider `CC(C)CC(NC(=O)C1CCC(C)CC1)C(=O)NCc1cccnc1` (stereo not drawn), for which the “% Inhibition @ 10 uM” value is on record as 4.02%.

As to `CC(C)(C)C(=O)/C=C(/c1ccccc1)N1CCCCC1`, the “% Inhibition @ 10 uM” value is -2.47%.

As for `Cc1sc2ncnc(N3CCC(C)CC3)c2c1S(=O)(=O)N1CCOCC1`, the “% Inhibition @ 10 uM” value is on record as -5.17%.

As to `CC(C)Oc1ccc(C(=O)C2=C(O)C(=O)N(Cc3cccnc3)C2c2ccco2)cc1` (stereo not drawn), the “% Inhibition @ 10 uM” value is -1.35%.

Turning to `COc1ccc(-c2cc(C)no2)cc1S(=O)(=O)NCc1ccc(C)o1`, the “% Inhibition @ 10 uM” value is given as -1.95%.

Take `COc1cc(C(CC(=O)Nc2ccccn2)N2Cc3ccccc3C2=O)cc(OC)c1OC` (stereo not drawn): the “% Inhibition @ 10 uM” value is listed as -4.78%.

As for `CN1CCN(Cc2ccccc2Sc2ccccc2)CC1`, the “% Inhibition @ 10 uM” value is listed as -0.334%.

For the compound `CC(=O)N(C(C)=O)c1ncc2c([nH]c3ccccc32)c1C#N`, the “% Inhibition @ 10 uM” value is given as -1.33%.

Regarding `CCN(CC)C(=O)c1sc(NC(=O)c2ccc(C)cc2)c(C#N)c1C`, the “% Inhibition @ 10 uM” value is on record as -2.53%.

In the case of `COc1ccc(-n2cc(Cl)nc(NCCc3c[nH]c4ccccc34)c2=O)cc1`, the “% Inhibition @ 10 uM” value is -3.77%.

As to `COc1cc(C2c3c(-c4c(C)cc(C)cc4O)n[nH]c3C(=O)N2CCO)cc(Br)c1O` (stereo not drawn), the “% Inhibition @ 10 uM” value is 6.34%.

On to `CCn1cc(CCC(=O)NC2CCCC(C)C2C)c2ccccc21` (stereo not drawn), for which the “% Inhibition @ 10 uM” value amounted to 0.581%.

On to `Cc1cc(C(F)(F)F)c2c(n1)sc1c(O)cc(O)nc12`, for which the “% Inhibition @ 10 uM” value stood at 3.39%.

Take `Fc1cccc(F)c1-c1nc(-c2ccc(-n3cccc3)cc2)no1`: the “% Inhibition @ 10 uM” value is 5.76%.

In the case of `C[C@@H](Cc1ccccc1)NC(=O)C(c1ccccc1)c1ccccc1`, the “% Inhibition @ 10 uM” value was 0.968%.

Take `O=C(O)c1cc(NS(=O)(=O)c2cc(Cl)ccc2Cl)ccc1O`: the “% Inhibition @ 10 uM” value is -4.39%.

For `O=C(CN1CCN(Cc2ccc3c(c2)OCO3)CC1)Nc1ccc(F)cc1`, the “% Inhibition @ 10 uM” value was -17%.

Regarding `Cc1cc(NC(=O)CN2CCc3ccccc3C2)nc2c1c(=O)oc1ccccc12`, the “% Inhibition @ 10 uM” value is reported as 1.49%.

`CCOc1ccc(NC(=O)C2=C(C)NC(=O)NC2c2ccc(Cl)cc2Cl)cc1` (stereo not drawn): the “% Inhibition @ 10 uM” value worked out at 6.86%.

In the case of `CCN(CC)S(=O)(=O)c1ccc(Cl)c(C(=O)OC)c1`, the “% Inhibition @ 10 uM” value is on record as -1.62%.

On to `CCCNC(=O)Cn1ncc2c(C)n(Cc3ccc(F)cc3)c(C)c2c1=O`, for which the “% Inhibition @ 10 uM” value was 1.22%.

Regarding `Fc1cccc(-n2c(S)nnc2CN2CCSCC2)c1`, the “% Inhibition @ 10 uM” value amounted to 3.48%.

`CN1CCc2oc3ccc(N)cc3c2C1`: the “% Inhibition @ 10 uM” value is recorded as 1.8%.

In the case of `CC(C)NC(=O)c1cc(-c2cccs2)nc2ccccc12`, the “% Inhibition @ 10 uM” value was 0.0538%.

As for `Nc1no[n+]([O-])c1C(=O)CSc1ncc(-c2ccccc2)nn1`, the “% Inhibition @ 10 uM” value was -0.0108%.

For `CCOC(=O)N1CCN(C(=O)Cn2ncc3c(=O)oc4ccccc4c32)CC1`, the “% Inhibition @ 10 uM” value is 2.39%.

For the compound `COc1ccccc1CNC(=O)C1CCCN1c1nn2c(=O)cc(C)nc2s1` (stereo not drawn), the “% Inhibition @ 10 uM” value worked out at 4.55%.

Take `Cc1cc(C)nc(NS(=O)(=O)c2ccc(NS(=O)(=O)c3cc(Cl)ccc3Cl)cc2)n1`: the “% Inhibition @ 10 uM” value is listed as -1.36%.

As for `O=C(NCCc1nc2ccccc2n1CCc1ccccc1)c1ccco1`, the “% Inhibition @ 10 uM” value was 2.14%.
